In the supplement of paper PMC9151546:
Single values are uncertain, as repeats are few or missing.

How the values were obtained:
CHO-K1 [1] = experiment: micronucleus frequency (% of nucleated events); higher = more micronuclei (genotoxic)
CHO-K1 [2] = experiment: relative survival (nuclei to bead ratio vs DMSO control) (% of vehicle control); higher = more surviving cells
Procedure: (§1)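 Flow-cytometric in vitro micronucleus assay (Litron MicroFlow) in CHO-K1 cells in 96-well plates, 19 concentrations (4.5-200 µM, n=1 per concentration). Without S9, cells were exposed for 24 h and sampled at 48 h. With Aroclor 1254-induced rat liver S9, cells were exposed for 3-4 h and sampled at 27-28 h. Read-outs are %MN and %hypodiploid nuclei relative to nucleated events, and relative survival as the nuclei-to-bead ratio versus the 1% DMSO vehicle control (x100).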

CHO-K1 [3] = experiment: hypodiploid nuclei frequency (% of nucleated events); higher = more hypodiploid events (aneugenic)
Procedure: as §1
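Throughout, for hypodiploid nuclei frequency (% of nucleated events): hypodiploid nuclei gated on a flow cytometer with 488 nm excitation after SYTOX Green staining, cultures at 37 °C, positive controls vinblastine without S9 and cyclophosphamide with S9.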
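Throughout, for micronucleus frequency (% of nucleated events): cells lysed with nuclei stained by SYTOX Green, then micronucleus-gated events counted against nucleated events by flow cytometry with 488 nm excitation.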
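Throughout, for relative survival (nuclei to bead ratio vs DMSO control): Lysed-cell nuclei stained with SYTOX Green and counted against counting beads by flow cytometry at 488 nm excitation, with vinblastine (no S9) and cyclophosphamide (plus S9) as positive controls.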

CC(C)(OO)c1ccccc1 [Cumene hydroperoxide]
Conditions	hypodiploid nuclei frequency, CHO-K1 [3] [%]	micronucleus frequency, CHO-K1 [1] [%]	relative survival, CHO-K1 [2]
concentration: 4.5 (µM), S9 metabolic activation: with S9, exposure time: 3-4 hours	0.12	1.34	113
concentration: 4.5 (µM), S9 metabolic activation: without S9, exposure time: 24 hours	0.36	1.54	118
concentration: 5.63 (µM), S9 metabolic activation: with S9, exposure time: 3-4 hours	0.46	1.7	91.5
concentration: 5.63 (µM), S9 metabolic activation: without S9, exposure time: 24 hours	0.54	1.4	100
concentration: 7.04 (µM), S9 metabolic activation: with S9, exposure time: 3-4 hours	0.28	1.38	89.3
concentration: 7.04 (µM), S9 metabolic activation: without S9, exposure time: 24 hours	0.52	1.66	95
concentration: 8.8 (µM), S9 metabolic activation: with S9, exposure time: 3-4 hours	0.28	1.42	95.3
concentration: 8.8 (µM), S9 metabolic activation: without S9, exposure time: 24 hours	0.64	1.7	111
concentration: 11 (µM), S9 metabolic activation: with S9, exposure time: 3-4 hours	0.26	1.1	107
concentration: 11 (µM), S9 metabolic activation: without S9, exposure time: 24 hours	0.54	1.3	97.1
concentration: 13.7 (µM), S9 metabolic activation: with S9, exposure time: 3-4 hours	0.2	1.5	95
concentration: 13.7 (µM), S9 metabolic activation: without S9, exposure time: 24 hours	0.48	1.32	103
concentration: 17.2 (µM), S9 metabolic activation: with S9, exposure time: 3-4 hours	0.32	2.06	115
concentration: 17.2 (µM), S9 metabolic activation: without S9, exposure time: 24 hours	0.68	1.52	120
concentration: 21.5 (µM), S9 metabolic activation: with S9, exposure time: 3-4 hours	0.4	1.14	126
concentration: 21.5 (µM), S9 metabolic activation: without S9, exposure time: 24 hours	0.6	1.86	120
concentration: 26.8 (µM), S9 metabolic activation: with S9, exposure time: 3-4 hours	0.22	1.38	87.1
concentration: 26.8 (µM), S9 metabolic activation: without S9, exposure time: 24 hours	0.88	1.5	109
concentration: 33.6 (µM), S9 metabolic activation: with S9, exposure time: 3-4 hours	0.36	1.58	84.4
concentration: 33.6 (µM), S9 metabolic activation: without S9, exposure time: 24 hours	0.7	2.12	110
concentration: 41.9 (µM), S9 metabolic activation: with S9, exposure time: 3-4 hours	0.34	1.54	76.4
concentration: 41.9 (µM), S9 metabolic activation: without S9, exposure time: 24 hours	0.72	1.68	120
concentration: 52.4 (µM), S9 metabolic activation: with S9, exposure time: 3-4 hours	0.22	1.74	83.3
concentration: 52.4 (µM), S9 metabolic activation: without S9, exposure time: 24 hours	0.9	1.9	96
concentration: 65.5 (µM), S9 metabolic activation: with S9, exposure time: 3-4 hours	0.34	2.06	84.8
concentration: 65.5 (µM), S9 metabolic activation: without S9, exposure time: 24 hours	0.72	2.06	121
concentration: 81.9 (µM), S9 metabolic activation: with S9, exposure time: 3-4 hours	0.2	2.12	94.5
concentration: 81.9 (µM), S9 metabolic activation: without S9, exposure time: 24 hours	0.7	2.38	110
concentration: 102 (µM), S9 metabolic activation: with S9, exposure time: 3-4 hours	0.24	1.66	107
concentration: 102 (µM), S9 metabolic activation: without S9, exposure time: 24 hours	1.14	2.02	106
concentration: 128 (µM), S9 metabolic activation: with S9, exposure time: 3-4 hours	0.44	1.54	88.3
concentration: 128 (µM), S9 metabolic activation: without S9, exposure time: 24 hours	1.24	2.92	88.1
concentration: 160 (µM), S9 metabolic activation: with S9, exposure time: 3-4 hours	0.44	2.54	94.7
concentration: 160 (µM), S9 metabolic activation: without S9, exposure time: 24 hours	1.54	3.32	47.6
concentration: 200 (µM), S9 metabolic activation: with S9, exposure time: 3-4 hours	0.2	1.96	101
concentration: 200 (µM), S9 metabolic activation: without S9, exposure time: 24 hours	–	–	22.2

O=P1(N(CCCl)CCCl)NCCCO1 (centres undefined) [Cyclophosphamide monohydrate]
Conditions	hypodiploid nuclei frequency, CHO-K1 [3] [%]	micronucleus frequency, CHO-K1 [1] [%]	relative survival, CHO-K1 [2]
concentration: 4.5 (µM), S9 metabolic activation: with S9, exposure time: 3-4 hours	0.26	1.42	76.5
concentration: 4.5 (µM), S9 metabolic activation: without S9, exposure time: 24 hours	0.52	1.48	65.9
concentration: 5.63 (µM), S9 metabolic activation: with S9, exposure time: 3-4 hours	0.4	2.82	117
concentration: 5.63 (µM), S9 metabolic activation: without S9, exposure time: 24 hours	0.64	1.42	76.5
concentration: 7.04 (µM), S9 metabolic activation: with S9, exposure time: 3-4 hours	0.16	1.38	89.5
concentration: 7.04 (µM), S9 metabolic activation: without S9, exposure time: 24 hours	0.3	1.12	76
concentration: 8.8 (µM), S9 metabolic activation: with S9, exposure time: 3-4 hours	0.28	1.38	104
concentration: 8.8 (µM), S9 metabolic activation: without S9, exposure time: 24 hours	0.48	0.88	68.9
concentration: 11 (µM), S9 metabolic activation: with S9, exposure time: 3-4 hours	0.18	1.14	90.3
concentration: 11 (µM), S9 metabolic activation: without S9, exposure time: 24 hours	0.72	1.18	65.4
concentration: 13.7 (µM), S9 metabolic activation: with S9, exposure time: 3-4 hours	0.32	1.5	100
concentration: 13.7 (µM), S9 metabolic activation: without S9, exposure time: 24 hours	0.72	0.84	76.2
concentration: 17.2 (µM), S9 metabolic activation: with S9, exposure time: 3-4 hours	0.18	1.04	106
concentration: 17.2 (µM), S9 metabolic activation: without S9, exposure time: 24 hours	0.56	0.94	76.2
concentration: 21.5 (µM), S9 metabolic activation: with S9, exposure time: 3-4 hours	0.4	1.16	103
concentration: 21.5 (µM), S9 metabolic activation: without S9, exposure time: 24 hours	0.54	1.1	104
concentration: 26.8 (µM), S9 metabolic activation: with S9, exposure time: 3-4 hours	0.22	1.1	82.8
concentration: 26.8 (µM), S9 metabolic activation: without S9, exposure time: 24 hours	0.34	1.18	88.9
concentration: 33.6 (µM), S9 metabolic activation: with S9, exposure time: 3-4 hours	0.2	0.72	73.3
concentration: 33.6 (µM), S9 metabolic activation: without S9, exposure time: 24 hours	0.38	1.06	79.1
concentration: 41.9 (µM), S9 metabolic activation: with S9, exposure time: 3-4 hours	0.38	1.3	69.7
concentration: 41.9 (µM), S9 metabolic activation: without S9, exposure time: 24 hours	0.5	1.5	64.1
concentration: 52.4 (µM), S9 metabolic activation: with S9, exposure time: 3-4 hours	0.2	1	81.5
concentration: 52.4 (µM), S9 metabolic activation: without S9, exposure time: 24 hours	0.3	1.2	64.7
concentration: 65.5 (µM), S9 metabolic activation: with S9, exposure time: 3-4 hours	0.26	1.56	83.9
concentration: 65.5 (µM), S9 metabolic activation: without S9, exposure time: 24 hours	0.38	1.2	63.4
concentration: 81.9 (µM), S9 metabolic activation: with S9, exposure time: 3-4 hours	0.26	1.04	79.2
concentration: 81.9 (µM), S9 metabolic activation: without S9, exposure time: 24 hours	0.78	1.76	69.5
concentration: 102 (µM), S9 metabolic activation: with S9, exposure time: 3-4 hours	0.24	1.06	72.1
concentration: 102 (µM), S9 metabolic activation: without S9, exposure time: 24 hours	1	1.76	59.6
concentration: 128 (µM), S9 metabolic activation: with S9, exposure time: 3-4 hours	0.28	0.94	71.1
concentration: 128 (µM), S9 metabolic activation: without S9, exposure time: 24 hours	0.7	1.56	62.5
concentration: 160 (µM), S9 metabolic activation: with S9, exposure time: 3-4 hours	0.12	0.94	79.1
concentration: 160 (µM), S9 metabolic activation: without S9, exposure time: 24 hours	1.24	2	47.3
concentration: 200 (µM), S9 metabolic activation: with S9, exposure time: 3-4 hours	0.28	0.58	57.5
concentration: 200 (µM), S9 metabolic activation: without S9, exposure time: 24 hours	1.08	2.72	60.4
